Measured values from the supplement of paper PMC10126150.
Sequences with one replicate were seen in a single cluster, so their values are uncertain.

The sequences below were run on ATP (assay: switch fluorescence ratio, 500 uM ATP over buffer (Cy3 cluster intensity, sum of 5 cycles each) (fold (ratio)); higher = stronger signal-on switching upon ATP binding; sequences stand for … in TCGTCGGCAGCGTCAGATGTGTATAAGAGACAGTTTTTTTTTTTTTTTTTTTTTTTTT…TC). Details: aptamer strand: ATP DNA aptamer (quencher-CACCTGGGGGAGTATTGCGGAGGAAGG + anchor), 100 nM annealed; ATP concentration: 500 uM; one replicate.
Procedure, shortened: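 Imaging in selection buffer was followed by imaging after 15 min with 500 uM ATP at 22 °C, for Cy3-labelled switching-strand clusters annealed to 100 nM quencher-labelled ATP aptamer on a modified Illumina MiSeq flow-cell. Five of these buffer/ATP cycles ran, separated by NaOH stripping and re-annealing. The fluorescence ratio per cluster is summed target-cycle over summed buffer-cycle Cy3 intensity, averaged per switch-domain sequence; clusters outside 100-1000 RFU were removed.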
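Further: ATP exposure 15 min at 22 °C before imaging.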

Row | Sequence | switch fluorescence ratio
1 | CCAGCGAAAA | 0.976
2 | TACTATAATT | 1.03
3 | AACAGAAAA | 0.948
4 | ATAATATCAA | 1.04
5 | GACTTTGTGA | 1.02
6 | ACTTATCGCG | 1.02
7 | CTCTGGATCG | 0.985
8 | TAAGATATAC | 1.09
9 | TCAAAGTACT | 1.12
10 | CAGAAGAGTG | 0.915
11 | TTGCGCTTTA | 0.987
12 | ACGTGGTCA | 0.992
13 | TATCAGAAAA | 0.96
14 | CGGATGTAAA | 0.991
15 | TCATAGCTAT | 1.1
16 | GGAAGATTGT | 1.01
17 | GCCCTGCATC | 1.04
18 | CAAGCTTTG | 1.01
19 | TTTCGGCTGC | 0.978
20 | ATCTTGGTAT | 0.988
21 | ATGTTATGCA | 1.01
22 | ACTCGCGCCA | 1.6
23 | CTCAGATCGC | 1.1

Row | Sequence | switch fluorescence ratio
24 | TATCAGATTT | 1.01
25 | TATAGCACGG | 1
26 | TCCCAGTTAC | 1.83
27 | AATCGTTACG | 1.06
28 | GGTTGGCAAA | 0.959
29 | GGCATTGAAC | 0.993
30 | TAGACTAAAA | 0.996
31 | TTCGTCGCGC | 1.06
32 | CAACACAGAT | 1.03
33 | CTGTCCCTGG | 1.28
34 | TTTGCCTTCG | 1.21
35 | CATGCATGCG | 1.06
36 | TCTAGCAGCG | 1.04
37 | GTCTCTTCGG | 0.986
38 | GGATGGTTTA | 0.996
39 | GGCGAAGTTT | 1.01
40 | AACCGAGAGA | 1.03
41 | CACCACTGTA | 1.24
42 | CGTGTCTGGG | 0.99
43 | CGTGACCGGC | 0.907
44 | CATGTCGTAG | 0.978
45 | CGGTCTATTT | 1.03
46 | AAAGGGGCTT | 1.06

Row | Sequence | switch fluorescence ratio
47 | ACGGGTTATT | 1.04
48 | CTGAACCCGT | 0.991
49 | GAAGTTAATA | 1.09
50 | CTCACATCGG | 0.958
51 | CTAACCGGCG | 1.1
52 | AGCCGGTTGC | 1.04
53 | CAGACGGTTA | 1.09
54 | TTAGGTCATA | 1.01
55 | GAAGTCTTCA | 1.04
56 | ACTCATTCTT | 1.03
57 | CGGTTTGGAA | 0.982
58 | CTAGGGAAAT | 1.04
59 | TTGCCGGAG | 1.04
60 | TCATCGCGGT | 1.26
61 | GATGCTTAGG | 1.01
62 | TTTATCACTC | 0.928
63 | ATGATTACTG | 1
64 | CAAGCTGACG | 1.03
65 | GGTGAGTACC | 0.995
66 | GTAACGTACG | 1.51
67 | TAGGCGAGG | 0.973
68 | TGCTAGTCCC | 1.08
69 | TGAGAGCAAG | 0.991

Row | Sequence | switch fluorescence ratio
70 | AATAATTCGT | 1.03
71 | TTTATGTATC | 1.04
72 | GGATACAAGA | 1.02
73 | TTGAGGGCAC | 1.04
74 | TAGATGGTG | 0.999
75 | TAACGGTTTC | 1.15
76 | GTCTAAACT | 0.996
77 | GCTCGGTCAG | 1
78 | TGTAAAAGTT | 1.02
79 | AAAGGCGCAC | 1.1
80 | TGCTCTTAAC | 1.05
81 | AGGCTCGGCA | 0.978
82 | TGTTATCGCT | 1.01
83 | AGACCTACGC | 1.59
84 | CATAGGGAAG | 0.948
85 | TTGGGTGGAT | 1.42
86 | CCCTACAACT | 1.06
87 | ACACCATGGC | 1.04
88 | GGAGAAACGC | 0.965
89 | AGCATAATTT | 1.03
90 | CGTTGTCGTC | 1.03
91 | CCAGCGCGCC | 1.04
92 | CTGCCACCAA | 1.16

Row | Sequence | switch fluorescence ratio
93 | TGAAAAAGTC | 1.06
94 | GTAGTGGCGC | 0.949
95 | AACGAGG | 0.954
96 | CAGCATGGGA | 1.06
97 | GGGATCTGG | 1.01
98 | CTCTAACAAG | 1
99 | CCATTTTCGG | 1
100 | CTGACAACGT | 1.04
101 | GAATGCGCG | 1.05
102 | GAGACAAGCG | 1.05
103 | TACTTGTATA | 1.03
104 | GAACTCGACC | 1.07
105 | TTCGTCCACC | 1.01
106 | GTCCGAGGGG | 1.04
107 | GGCATGAGGA | 1.01
108 | ATGTCCTGCA | 1.03
109 | GGTTTCTATA | 1
110 | CATCCTCGTT | 1.08
111 | AGCTTTTTG | 1.05
112 | TACAATGCCG | 1.04
113 | TAGTAGGAG | 0.995
114 | TGCTGGGG | 0.982
115 | GAGTCTGAGG | 0.997

Row | Sequence | switch fluorescence ratio
116 | CGTTTACCCA | 1.01
117 | CATATCGACG | 1.04
118 | CTTTAATAAT | 1.03
119 | TTTTAGCTC | 1.06
120 | AAGCTCTTAC | 1.19
121 | TCTTTGCTGC | 1.16
122 | GCTCTATCGA | 0.978
123 | CCTGTGCATT | 4.48
124 | TGCTCAGGTG | 2.7
125 | AAGGATGGA | 0.982
126 | CGCAACCTCA | 3.29
127 | CACTAGGCAA | 1.09
128 | GAAGGGTCCC | 1.05
129 | AACTGGGTTG | 0.978
130 | GTCCAATAGG | 0.985
131 | ACCTAGCTGG | 0.96
132 | GCGTTCTAGT | 0.997
133 | CGTAGGTAG | 0.989
134 | ATGCTTTAAA | 0.983
135 | CATGGAGGGC | 0.97
136 | GGTGTGACCT | 1.04
137 | GAGCACACAT | 1.1
138 | ATGACGCGGC | 1.36

Row | Sequence | switch fluorescence ratio
139 | GGCCGGT | 1
140 | CCTTATACAG | 1.02
141 | TGGTCTTGCG | 0.986
142 | AACATATCAC | 1.05
143 | CGCCTCGCTA | 1.24
144 | CATTGGGTCG | 1.01
145 | TTCCCGGACA | 1.02
146 | CGAAATAATC | 1.07
147 | GCAGGCACAG | 1
148 | TAAAGGAGT | 1.02
149 | AGCACAACTT | 0.995
150 | CGTCCCCGGA | 1.02
151 | TGGGGCTGTA | 1.1
152 | TTTAGGTGGG | 1.05
153 | GCTTTGTTCC | 1.06
154 | TTGTAGGATT | 1.04
155 | TGTCAGAAAG | 1.23
156 | TCCAAGTGAG | 1
157 | CTTGGGCCCG | 1.02
158 | AAGGAAATGC | 1.5
